Values joined by “and” are separate entries in the source; they are usually repeats but may differ in a detail not shown here. Equal entries are not always repeated. Structures can show the parent of a compound that is named as a salt. Out of some 5,800 compounds screened, about 620 (11%) showed activity.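 The calls were made as follows: active = score above a cut-off or among the top three wells of a plate; in these data no inactive exceeds 0.85.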 The entries are a selection whose mix differs from that of the whole data set.
Test system: primary human hepatic stellate cells (donor 1)
Test: scaled lipid accumulation score (0 = DMSO-like, 1 = nortriptyline-like); higher = stronger HSC inactivation (lipid re-accumulation), active = hit call of the paper
Conditions: 48 h
[1] = library stock concentration: 3.33 mM
[2] = library stock concentration: 10 mM
[3] = library stock concentration: 1 mM
[4] = library stock concentration: 80 uM
[5] = library stock concentration: 400 uM
[6] = library stock concentration: 2 mM

SMILES: CN1CCCN(C(c2ccccc2)c2ccc(Cl)cc2)CC1.Cl.Cl (centres undefined) [Homochlorcyclizine dihydrochloride]
- scaled lipid accumulation score: active: 0.879

SMILES: Nc1c(CC(=O)O)cccc1C(=O)c1ccccc1 [Amfenac Sodium Monohydrate]
- scaled lipid accumulation score [1]: inactive: ≤ 0
- scaled lipid accumulation score [2]: inactive: 0.019

SMILES: CC(C)(C)C(=O)Nc1ccc2c(c1)C(=O)C(=O)c1ccccc1-2
- scaled lipid accumulation score [1]: inactive: ≤ -0.009
- scaled lipid accumulation score [2]: inactive: 0.155

SMILES: O=C1NC(=O)c2c1c(-c1ccccc1)cc1[nH]c3ccc(O)cc3c21
- scaled lipid accumulation score [2]: inactive: ≤ -0.055 and inactive: ≤ -0.001

SMILES: N=C1NC(=O)/C(=C/c2ccc(O)cc2)S1 [Mirin]
- scaled lipid accumulation score [3]: inactive: ≤ 0

SMILES: C[N+]1(C)CCC(OC(=O)C(O)(c2ccccc2)C2CCCC2)C1 (centres undefined) [Glycopyrrolate]
- scaled lipid accumulation score: inactive: ≤ 0
- scaled lipid accumulation score (library stock concentration: 5 mM): inactive: ≤ 0

SMILES: C[N+]1(C)CCC(OC(=O)C(O)(c2ccccc2)C2CCCC2)C1 (centres undefined)
- scaled lipid accumulation score [2]: inactive: ≤ 0

SMILES: O=C(Nc1ccc([N+](=O)[O-])cc1Cl)c1cc(Cl)ccc1O [Niclosamide]
- scaled lipid accumulation score (library stock concentration: 6.1 mM): active: 1.15
- scaled lipid accumulation score [2]: active: 1.08

SMILES: O=C(Nc1cccc(Cl)c1)c1ccccn1
- scaled lipid accumulation score [1]: inactive: ≤ 0
- scaled lipid accumulation score [2]: inactive: ≤ 0

SMILES: C[C@@]1(C(=O)Nc2ccc(F)nc2)CCCN1c1nc(Nc2cc(C3CC3)n[nH]2)c2cccn2n1
- scaled lipid accumulation score [1]: inactive: ≤ 0
- scaled lipid accumulation score [2]: inactive: 0.177

SMILES: Clc1ccc(CCC(Cn2ccnc2)Sc2c(Cl)cccc2Cl)cc1 (centres undefined) [Butoconazole nitrate]
- scaled lipid accumulation score: inactive: 0.069
- scaled lipid accumulation score [1]: inactive: ≤ 0
- scaled lipid accumulation score [2]: inactive: 0.16

SMILES: Clc1ccc(CCC(Cn2ccnc2)Sc2c(Cl)cccc2Cl)cc1 (centres undefined)
- scaled lipid accumulation score [2]: inactive: 0.113

SMILES: N[C@H](C(=O)O)c1ccc(O)c(C(=O)O)c1 [(S)-3-Carboxy-4-hydroxyphenylglycine]
- scaled lipid accumulation score [2]: inactive: ≤ 0

SMILES: CN(C)C(=O)Nc1cccc(-c2ccc(N(C)C)cc2)c1 [Atglistatin]
- scaled lipid accumulation score [1]: inactive: 0.012
- scaled lipid accumulation score [2]: inactive: 0.076

SMILES: CC1(C)CC(Nc2nccc(-c3cnn(-c4ccccc4)c3)n2)CC(C)(C)N1
- scaled lipid accumulation score [2]: active: 0.799

SMILES: CC1c2cccc(O)c2C(O)=C2C(=O)C3(O)C(O)=C(C(N)=O)C(=O)C(N(C)C)C3C(O)C21 (centres undefined) [Doxycycline hydrochloride]
- scaled lipid accumulation score [2]: inactive: ≤ -0.07

SMILES: CCCCC/C=C\C[C@H](O)/C=C/C=C\C/C=C\CCCC(=O)O
- scaled lipid accumulation score (library stock concentration: 100 uM): inactive: ≤ -0.021

SMILES: N#Cc1ccc(C(c2ccc(C#N)cc2)n2cncn2)cc1 [Letrozole]
- scaled lipid accumulation score: inactive: ≤ 0
- scaled lipid accumulation score [1]: inactive: ≤ 0
- scaled lipid accumulation score (library stock concentration: 7 mM): inactive: ≤ -0.006
- scaled lipid accumulation score [2]: inactive: ≤ 0

SMILES: N#Cc1ccc(C(c2ccc(C#N)cc2)n2cncn2)cc1
- scaled lipid accumulation score [2]: inactive: ≤ 0

SMILES: N=C(NCCCCCCNC(=N)NC(=N)Nc1ccc(Cl)cc1)NC(=N)Nc1ccc(Cl)cc1 [Chlorhexidine]
- scaled lipid accumulation score: inactive: 0.009
- scaled lipid accumulation score (library stock concentration: 3.5 mM): inactive: 0.006
- scaled lipid accumulation score [2]: inactive: ≤ 0

SMILES: N=C(NCCCCCCNC(=N)NC(=N)Nc1ccc(Cl)cc1)NC(=N)Nc1ccc(Cl)cc1 [Chlorhexidine HCl]
- scaled lipid accumulation score [1]: inactive: 0.173
- scaled lipid accumulation score [2]: inactive: 0.327

SMILES: NCc1ccccc1CC(=O)N[C@@H]1C(=O)N2C(C(=O)O)=C(CSc3nnnn3CC(=O)O)CS[C@H]12 [Ceforanide]
- scaled lipid accumulation score: inactive: ≤ 0

SMILES: COc1c2occc2cc2ccc(=O)oc12 [Methoxsalen]
- scaled lipid accumulation score [1]: inactive: ≤ 0
- scaled lipid accumulation score (library stock concentration: 9.3 mM): inactive: ≤ -0.001
- scaled lipid accumulation score [2]: inactive: ≤ 0

SMILES: COc1c2occc2cc2ccc(=O)oc12 [Methoxy-8-psoralen]
- scaled lipid accumulation score: inactive: ≤ 0

SMILES: CC(C)CC(N)=O [Isovaleramide]
- scaled lipid accumulation score [1]: inactive: ≤ 0
- scaled lipid accumulation score [2]: inactive: ≤ -0.001

SMILES: CC(C)CC(N)=O
- scaled lipid accumulation score [2]: inactive: 0.291

SMILES: CN1CCN(C2=Nc3ccccc3Oc3ccc(Cl)cc32)CC1
- scaled lipid accumulation score [2]: inactive: 0.608

SMILES: CN1CCN(C2=Nc3ccccc3Oc3ccc(Cl)cc32)CC1 [Loxapine succinate]
- scaled lipid accumulation score: inactive: 0.3
- scaled lipid accumulation score (library stock concentration: 4.5 mM): inactive: 0.253
- scaled lipid accumulation score [2]: inactive: 0.708 and inactive: 0.486

SMILES: CN1CCN(C2=Nc3ccccc3Oc3ccc(Cl)cc32)CC1 [Loxapine Succinate]
- scaled lipid accumulation score [1]: inactive: ≤ 0
- scaled lipid accumulation score [2]: inactive: 0.493

SMILES: CCCC/C=C\CCCCCCCC(=O)OC [Myristoleic Acid methyl ester]
- scaled lipid accumulation score [3]: inactive: ≤ 0

SMILES: CCOC(=O)[C@@H](N)Cc1ccc(-c2cc(O[C@H](c3ccc(Cl)cc3-n3ccc(C)n3)C(F)(F)F)nc(N)n2)cc1 [Telotristat Etiprate (LX 1606 Hippurate)]
- scaled lipid accumulation score [1]: inactive: ≤ 0
- scaled lipid accumulation score [2]: inactive: 0.235

SMILES: Oc1ccc2ccccc2c1 [beta-NAPHTHOL]
- scaled lipid accumulation score [2]: inactive: ≤ 0

SMILES: CC(=O)OCC(=O)[C@@]1(O)[C@@H](C)C[C@H]2[C@@H]3CCC4=CC(=O)C=C[C@]4(C)[C@@]3(F)[C@@H](O)C[C@@]21C
- scaled lipid accumulation score [2]: inactive: ≤ 0

SMILES: NCCC[C@](N)(C(=O)O)C(F)F (racemic) [DL-alpha-Difluoromethylornithine hydrochloride]
- scaled lipid accumulation score [2]: inactive: ≤ -0.07

SMILES: c1ccc(NCc2ccc(CNc3ccccn3)cc2)nc1
- scaled lipid accumulation score [1]: inactive: ≤ 0
- scaled lipid accumulation score [2]: inactive: ≤ 0

SMILES: CCOC(=O)c1cnc2ccc(-c3cncc(NS(=O)(=O)c4ccccc4)c3)cn12
- scaled lipid accumulation score [2]: active: 0.915

SMILES: COc1ccc(CN2C(=O)C(=O)c3cc(OC(F)(F)F)ccc32)cc1
- scaled lipid accumulation score [2]: inactive: 0.373

SMILES: Cc1nnc(C(=O)NC(C)(C)c2nc(C(=O)NCc3ccc(F)cc3)c(O)c(=O)n2C)o1 [Raltegravir (MK-0518)]
- scaled lipid accumulation score [1]: inactive: 0.018
- scaled lipid accumulation score [2]: inactive: 0.008

SMILES: O=C(NC[C@H]1CN(c2ccc(N3CCOCC3=O)cc2)C(=O)O1)c1ccc(Cl)s1 [Rivaroxaban]
- scaled lipid accumulation score [1]: inactive: ≤ 0
- scaled lipid accumulation score [2]: inactive: ≤ 0

SMILES: CC(C)c1nn(-c2c(Cl)cccc2Cl)c2nc(Cc3ccc(OCCO)cc3)[nH]c(=O)c12
- scaled lipid accumulation score [4]: inactive: 0.074
- scaled lipid accumulation score [5]: inactive: 0.071
- scaled lipid accumulation score [6]: inactive: 0.275
- scaled lipid accumulation score [2]: inactive: 0.136

SMILES: C[C@@H]1C[C@H]2[C@@H]3C[C@H](F)C4=CC(=O)C=C[C@]4(C)[C@@]3(F)[C@@H](O)C[C@]2(C)[C@@]1(O)C(=O)CO [Flumethasone]
- scaled lipid accumulation score: inactive: ≤ 0
- scaled lipid accumulation score [1]: inactive: ≤ 0
- scaled lipid accumulation score (library stock concentration: 4.9 mM): inactive: ≤ 0
- scaled lipid accumulation score [2]: inactive: ≤ -0.001

SMILES: Cc1cc2c(cc1CC(=O)c1sccc1S(=O)(=O)Nc1onc(C)c1Cl)OCO2 [Sitaxentan sodium]
- scaled lipid accumulation score [1]: inactive: ≤ 0
- scaled lipid accumulation score [2]: inactive: ≤ 0

SMILES: COc1cc(N2CCC(N3CCN(C)CC3)CC2)ccc1Nc1ncc(Cl)c(-c2c[nH]c3ccccc23)n1
- scaled lipid accumulation score [4]: inactive: 0.057
- scaled lipid accumulation score [5]: inactive: 0.358

SMILES: O=C(O)Cc1ccc(-c2ccccc2)cc1 [Felbinac]
- scaled lipid accumulation score: inactive: ≤ 0

SMILES: O=C(O)c1cn(-c2ccc(F)cc2)c2cc(N3CCNCC3)c(F)cc2c1=O [Sarafloxacin HCl]
- scaled lipid accumulation score (library stock concentration: 5.2 mM): inactive: ≤ 0

SMILES: O=C(O)c1cn(-c2ccc(F)cc2)c2cc(N3CCNCC3)c(F)cc2c1=O [Sarafloxacin hydrochloride]
- scaled lipid accumulation score (library stock concentration: 4.7 mM): inactive: 0.013
- scaled lipid accumulation score [2]: inactive: ≤ -0.027

SMILES: C[C@@H](NCc1cc(Br)cc2[nH]c(=O)c(=O)[nH]c12)P(=O)(O)O
- scaled lipid accumulation score [2]: inactive: ≤ -0.006

SMILES: COc1cccc(/C=N/N=C/c2cccc(OC)c2)c1
- scaled lipid accumulation score [2]: inactive: ≤ 0

SMILES: COc1ccc(NC(=O)c2cc(OCCCN(C)C)nn2Cc2ccccc2)cc1.Cl [CFM 1571 hydrochloride]
- scaled lipid accumulation score [2]: active: 1.11

SMILES: CC/C=C\C/C=C\C/C=C\C/C=C\C/C=C\CCCC(=O)O [Eicosapentaenoic acid (20:5 n-3)]
- scaled lipid accumulation score [3]: inactive: 0.009

SMILES: CC/C=C\C/C=C\C/C=C\C/C=C\C/C=C\CCCC(=O)O [Eicosapentaenoic Acid]
- scaled lipid accumulation score [3]: inactive: 0.001

SMILES: CC1CCN(c2cc(N3CCN(C)CC3)ccc2NC(=O)c2cc(C#N)c[nH]2)CC1
- scaled lipid accumulation score [2]: active: 1.32

SMILES: CCCCC1CCC(c2nc(-c3ccncc3)no2)CC1 (centres undefined)
- scaled lipid accumulation score [3]: inactive: 0.03
- scaled lipid accumulation score [2]: inactive: ≤ -0.001

SMILES: O=C1/C(=C/c2cccs2)CC/C1=C\c1cccs1
- scaled lipid accumulation score [2]: inactive: ≤ 0

SMILES: O=C1NC(=O)/C(=C\c2cccc(C(F)(F)F)c2)S1 [PIM12 kinase inhibitor V]
- scaled lipid accumulation score [4]: inactive: ≤ -0.001
- scaled lipid accumulation score [5]: inactive: ≤ -0.001
- scaled lipid accumulation score [6]: inactive: ≤ -0.001
- scaled lipid accumulation score [2]: inactive: 0.011

SMILES: NC(=O)N[C@@H](CCC(=O)O)C(=O)O
- scaled lipid accumulation score [2]: inactive: ≤ 0

SMILES: CC(=O)[C@@]12O[C@](C)(c3ccccc3)O[C@@H]1C[C@H]1[C@@H]3CCC4=CC(=O)CC[C@]4(C)[C@H]3CC[C@@]12C
- scaled lipid accumulation score [2]: inactive: ≤ 0

SMILES: COC(=O)[C@H](c1ccccc1Cl)N1CCc2sccc2C1 [Clopidogrel sulfate]
- scaled lipid accumulation score (library stock concentration: 4.8 mM): inactive: ≤ 0
- scaled lipid accumulation score (library stock concentration: 6.2 mM): inactive: 0.03
- scaled lipid accumulation score [2]: inactive: ≤ -0.027

SMILES: COC(=O)[C@H](c1ccccc1Cl)N1CCc2sccc2C1 [clopidogrel]
- scaled lipid accumulation score [2]: inactive: 0.005

SMILES: COC(=O)[C@H](c1ccccc1Cl)N1CCc2sccc2C1 [Clopidogrel]
- scaled lipid accumulation score [1]: inactive: ≤ 0
- scaled lipid accumulation score [2]: inactive: ≤ 0

SMILES: C[C@]12CCC(=O)C=C1CC[C@@H]1[C@@H]2C(=O)C[C@@]2(C)[C@H]1CC[C@]2(O)C(=O)CO
- scaled lipid accumulation score [2]: inactive: 0.061

SMILES: C[C@]12CCC(=O)C=C1CC[C@@H]1[C@@H]2C(=O)C[C@@]2(C)[C@H]1CC[C@]2(O)C(=O)CO [Cortisone]
- scaled lipid accumulation score: inactive: ≤ 0
- scaled lipid accumulation score [2]: inactive: ≤ 0

SMILES: COCCCC/C(=N\OCCN)c1ccc(C(F)(F)F)cc1 [Fluvoxamine maleate]
- scaled lipid accumulation score: inactive: 0.592
- scaled lipid accumulation score [1]: inactive: 0.347
- scaled lipid accumulation score [2]: inactive: 0.81 and inactive: 0.545

SMILES: COCCCC/C(=N\OCCN)c1ccc(C(F)(F)F)cc1 [Fluvoxamine]
- scaled lipid accumulation score [2]: inactive: 0.69

SMILES: CN(C)CCC=C1c2ccccc2Sc2ccc(Cl)cc21 [Chlorprothixene]
- scaled lipid accumulation score [2]: active: 1.03

Source: the supplement of paper PMC9135407
